Measurements published in paper PMC7493027, “Mps1 dimerization and multisite interactions with Ndc80 complex enable responsive spindle assembly checkpoint signaling” (Journal of Molecular Cell Biology, 2020).
No constants are given. Whether binding was seen depends on the method and setting. For some of these results: Binding seen in cells or lysates may run through a third protein. Some entries that bind do so weakly or less than the wild type. Where a sequence is shown, tags or fusion partners need not be part of it. Blank lines part the entries; values can stand above or below the binder they belong to.

Columns and labels:
[1] = target: Mps1^C342 (amino acids 516–857), YFPN- or YFPC-tagged for BiFC (human) (UniProt P33981); test: split reporter; BiFC with YFPN- and YFPC-tagged Mps1 fragments co-expressed in cells; with or without reversine (Supplementary Figure S4G and H)
[2] = target: Mps1^PK (protein kinase domain, amino acids 516–792), YFPN- or YFPC-tagged for BiFC (human) (UniProt P33981); test: as above
[3] = target: Mps1^N300 (amino acids 1–300), mCherry-LacI-tagged (bait) or GFP-tagged (prey) (human) (UniProt P33981); test: LacI/LacO-based in vivo interaction assay (recruitment to a LacO array); U2OS-LacO cells co-expressing mCherry-LacI-Mps1 baits and GFP-Mps1 preys; fixed 24 h after transfection; GFP signal at the LacO array
[4] = target: Mps1^N300 (amino acids 1–300), YFPN- or YFPC-tagged for BiFC (human) (UniProt P33981); test: split reporter; BiFC with YFPN- and YFPC-tagged Mps1 fragments co-expressed in cells; with or without reversine (Supplementary Figure S4G and H)
[5] = target: T1, full-length Mps1, Flag-tagged or LAP-tagged (human) (UniProt P33981); test: co-IP; 293T cells co-transfected with Flag-Mps1 and LAP-Mps1 or GFP-ZW10; one group treated with reversine for 2 h; anti-Flag M2 beads; anti-GFP and anti-Flag blots
T1 sequence: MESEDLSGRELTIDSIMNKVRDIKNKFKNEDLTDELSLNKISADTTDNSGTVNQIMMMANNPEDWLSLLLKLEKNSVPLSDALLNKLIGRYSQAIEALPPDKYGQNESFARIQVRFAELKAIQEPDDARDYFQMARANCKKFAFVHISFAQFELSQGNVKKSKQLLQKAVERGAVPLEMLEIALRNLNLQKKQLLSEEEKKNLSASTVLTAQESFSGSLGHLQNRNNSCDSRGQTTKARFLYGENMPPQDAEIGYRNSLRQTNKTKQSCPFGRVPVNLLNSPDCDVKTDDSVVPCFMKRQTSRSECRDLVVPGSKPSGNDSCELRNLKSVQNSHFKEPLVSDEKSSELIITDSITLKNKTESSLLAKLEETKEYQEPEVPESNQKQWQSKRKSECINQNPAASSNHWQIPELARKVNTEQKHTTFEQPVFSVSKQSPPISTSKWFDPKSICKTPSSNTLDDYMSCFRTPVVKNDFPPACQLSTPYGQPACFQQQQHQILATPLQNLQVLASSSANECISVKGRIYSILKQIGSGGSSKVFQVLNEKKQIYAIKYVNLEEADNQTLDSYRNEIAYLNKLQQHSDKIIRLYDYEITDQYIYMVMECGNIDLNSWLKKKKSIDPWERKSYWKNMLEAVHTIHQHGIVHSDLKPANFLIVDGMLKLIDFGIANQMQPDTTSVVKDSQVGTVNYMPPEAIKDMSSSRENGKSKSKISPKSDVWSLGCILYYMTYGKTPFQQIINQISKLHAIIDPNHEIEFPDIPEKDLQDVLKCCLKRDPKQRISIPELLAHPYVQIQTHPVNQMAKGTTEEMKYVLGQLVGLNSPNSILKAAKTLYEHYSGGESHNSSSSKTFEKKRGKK

[6] = target: Mps1^WT, mCherry-LacI-tagged (bait) or GFP-tagged (prey) (human) (UniProt P33981); test: LacI/LacO-based in vivo interaction assay (recruitment to a LacO array); U2OS-LacO cells co-expressing mCherry-LacI-Mps1 baits and GFP-Mps1 preys; fixed 24 h after transfection; GFP signal at the LacO array

binding [1]: binds
B1: Mps1^C342 (amino acids 516–857), YFPN- or YFPC-tagged for BiFC (domain or fragment, UniProt P33981 516-857)
chain: ECISVKGRIYSILKQIGSGGSSKVFQVLNEKKQIYAIKYVNLEEADNQTLDSYRNEIAYLNKLQQHSDKIIRLYDYEITDQYIYMVMECGNIDLNSWLKKKKSIDPWERKSYWKNMLEAVHTIHQHGIVHSDLKPANFLIVDGMLKLIDFGIANQMQPDTTSVVKDSQVGTVNYMPPEAIKDMSSSRENGKSKSKISPKSDVWSLGCILYYMTYGKTPFQQIINQISKLHAIIDPNHEIEFPDIPEKDLQDVLKCCLKRDPKQRISIPELLAHPYVQIQTHPVNQMAKGTTEEMKYVLGQLVGLNSPNSILKAAKTLYEHYSGGESHNSSSSKTFEKKRGKK

binding [2]: binds
B2: Mps1^PK (protein kinase domain, amino acids 516–792), YFPN- or YFPC-tagged for BiFC (domain or fragment, UniProt P33981 516-792)
chain: ECISVKGRIYSILKQIGSGGSSKVFQVLNEKKQIYAIKYVNLEEADNQTLDSYRNEIAYLNKLQQHSDKIIRLYDYEITDQYIYMVMECGNIDLNSWLKKKKSIDPWERKSYWKNMLEAVHTIHQHGIVHSDLKPANFLIVDGMLKLIDFGIANQMQPDTTSVVKDSQVGTVNYMPPEAIKDMSSSRENGKSKSKISPKSDVWSLGCILYYMTYGKTPFQQIINQISKLHAIIDPNHEIEFPDIPEKDLQDVLKCCLKRDPKQRISIPELLAHPYVQ

binding [3]: binds weakly
B3: Mps1^N300 (amino acids 1–300), mCherry-LacI-tagged (bait) or GFP-tagged (prey) (domain or fragment, UniProt P33981 1-300)
chain: MESEDLSGRELTIDSIMNKVRDIKNKFKNEDLTDELSLNKISADTTDNSGTVNQIMMMANNPEDWLSLLLKLEKNSVPLSDALLNKLIGRYSQAIEALPPDKYGQNESFARIQVRFAELKAIQEPDDARDYFQMARANCKKFAFVHISFAQFELSQGNVKKSKQLLQKAVERGAVPLEMLEIALRNLNLQKKQLLSEEEKKNLSASTVLTAQESFSGSLGHLQNRNNSCDSRGQTTKARFLYGENMPPQDAEIGYRNSLRQTNKTKQSCPFGRVPVNLLNSPDCDVKTDDSVVPCFMKRQ

binding [4]: binds weakly
B4: Mps1^N300 (amino acids 1–300), YFPN- or YFPC-tagged for BiFC (domain or fragment, UniProt P33981 1-300)
chain: B3 chain

binding [5]: binds
B5: full-length Mps1, Flag-tagged or LAP-tagged (protein, UniProt P33981 1-857)
chain: T1 sequence

binding [6]: binds
B6: Mps1^WT, mCherry-LacI-tagged (bait) or GFP-tagged (prey) (protein, UniProt P33981 1-857)
chain: T1 sequence

binding [5]: no binding
B7: GFP-ZW10 (protein, UniProt O43264 1-779)
chain: MASFVTEVLAHSGRLEKEDLGTRISRLTRRVEEIKGEVCNMISKKYSEFLPSMQSAQGLITQVDKLSEDIDLLKSRIESEVRRDLHVSTGEFTDLKQQLERDSVVLSLLKQLQEFSTAIEEYNCALTEKKYVTGAQRLEEAQKCLKLLKSRKCFDLKILKSLSMELTIQKQNILYHLGEEWQKLIVWKFPPSKDTSSLESYLQTELHLYTEQSHKEEKTPMPPISSVLLAFSVLGELHSKLKSFGQMLLKYILRPLASCPSLHAVIESQPNIVIIRFESIMTNLEYPSPSEVFTKIRLVLEVLQKQLLDLPLDTDLENEKTSTVPLAEMLGDMIWEDLSECLIKNCLVYSIPTNSSKLQQYEEIIQSTEEFENALKEMRFLKGDTTDLLKYARNINSHFANKKCQDVIVAARNLMTSEIHNTVKIIPDSKINVPELPTPDEDNKLEVQKVSNTQYHEVMNLEPENTLDQHSFSLPTCRISESVKKLMELAYQTLLEATTSSDQCAVQLFYSVRNIFHLFHDVVPTYHKENLQKLPQLAAIHHNNCMYIAHHLLTLGHQFRLRLAPILCDGTATFVDLVPGFRRLGTECFLAQMRAQKGELLERLSSARNFSNMDDEENYSAASKAVRQVLHQLKRLGIVWQDVLPVNIYCKAMGTLLNTAISEVIGKITALEDISTEDGDRLYSLCKTVMDEGPQVFAPLSEESKNKKYQEEVPVYVPKWMPFKELMMMLQASLQEIGDRWADGKGPLAAAFSSSEVKALIRALFQNTERRAAALAKIK
